Test results from the supplement of paper PMC3334620.
In all, about 33,000 sequences were measured (“E-score (-0.5 to 0.5)”: median about -0.056, highest 2% from about 0.38 on). Some of the results follow.

Molecular target: Stb4 (UniProt P50104)
Experiment: PBM E-score (8-mer binding enrichment) (E-score (-0.5 to 0.5)); higher = stronger / more preferred TF binding; most listed sequences are background and not binding sites
Conditions: protein concentration: 200 nM; construct: GST-DNA-binding domain
Procedure, shortened: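 PURExpress in vitro transcription/translation supplied GST-tagged yeast transcription factors, either full-length or DNA-binding domain. Applied at about 100-200 nM to universal all-10-mer Agilent arrays double-stranded by primer extension, the bound protein was detected with fluorescent anti-GST. E-scores, modified Wilcoxon-Mann-Whitney statistics, were given by the Universal PBM Analysis Suite to ungapped eight-base words pooled with their reverse complements after masliner normalisation.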

In order of falling “PBM E-score” value:
1. GTTCCGAA  0.479
2. TCGGCAGA  0.41
3. CGGAACGC  0.407
4. CCGGAAGC  0.395
5. CCGAGCAG  0.377
6. CTCCGGCA  0.337
7. CCTCCGGA  0.307
8. CCCCGATC  0.292
9. CGAGACCC  0.286
10. CGTGTTCC  0.282
11. CAAGCTCG  0.273
12. ACACTTCC  0.246
13. CTGTATCC  0.215
14. CGTATAAA  0.168
15. CCGTTGGC  0.147
16. ACCGTGTC  0.142
17. CGGGGTAC  0.13
18. ATGTGATC  0.102
19. GAAAAAAC  0.101
20. ACCTAACC  0.101
21. TAGCGGGA  0.0959
22. GTATCTTA  0.0901
23. GGGTCGAC  0.0843
24. CACCGCCG  0.0771
25. GATGCGGC  0.0547
26. GGTCGCAA  0.0482
27. ATACCACA  0.0431
28. CTCCTTTC  0.041
29. GCGGTAGC  0.0408
30. AAGAACTT  0.0294
31. ACCGCTTC  0.0283
32. ATACGGTA  0.0261
33. GAGACGAA  0.0232
34. CGGTCTCA  0.0227
35. CCAATCTC  0.0152
36. GCGGGGGA  0.0109
37. AACTGGTA  0.00946
38. ATTCAACC  0.00448
39. ACATGACA  -0.0109
40. TCAAATAA  -0.0118
41. TTTCAAAA  -0.0201
42. GCTACAAC  -0.0217
43. GCGTCTCC  -0.0256
44. AGGGTATA  -0.029
45. CAATATGA  -0.0295
46. CTACAATA  -0.0313
47. ATTCTCTC  -0.0327
48. ACCCAACC  -0.0362
49. AATGTCGC  -0.0427
50. CTATATTC  -0.0432
51. AGTAGACC  -0.0468
52. CTTTCTCA  -0.0478
53. ATCATCAA  -0.0541
54. CAGCGTAC  -0.0549
55. ACGAGGCT  -0.0598
56. TCGATGAA  -0.0646
57. ATGGTATG  -0.0811
58. CCATCACC  -0.0824
59. AGTTAAAT  -0.0935
60. AAATCAAG  -0.0968
61. GCCTATCA  -0.0989
62. GCTAAGAC  -0.0991
63. GAGTAGGC  -0.104
64. CTAATGGA  -0.106
65. TAAGTGGA  -0.106
66. CGTTGCAA  -0.109
67. GCAGGGGA  -0.11
68. ATAAACGC  -0.11
69. AGATGGAG  -0.114
70. GACCCAAC  -0.116
71. CACCCCTA  -0.117
72. GTGTTTTA  -0.117
73. GTCAAGCA  -0.119
74. CCAAGGCA  -0.123
75. CACCTGGC  -0.124
76. CCACAAGC  -0.128
77. ATTAACCA  -0.136
78. TCAGCAGA  -0.141
79. ATAATGAT  -0.15
80. ATCTCCAA  -0.151
81. CCAAATAA  -0.151
82. CTGCCTGC  -0.152
83. ATGGGTTC  -0.152
84. AGTACACT  -0.153
85. ACAGTAAG  -0.162
86. AGGTGCCA  -0.164
87. CGCTCGTA  -0.176
88. ATCACTTG  -0.176
89. ACTGTAGA  -0.184
90. AAGTGAGA  -0.202
91. CTTCGTTC  -0.215
92. AAGCTTTA  -0.219
93. ATACCCTA  -0.224
94. AGGGGGAC  -0.225
95. ATATAGGA  -0.225
96. ATTTCTCA  -0.239
97. CTTGATGC  -0.241
98. AACACCAG  -0.242
99. TAGGGGGA  -0.242
100. TAACTGCA  -0.243
101. AATCTCTA  -0.247
102. GGGCATGA  -0.248
103. AGCCTGGC  -0.26
104. GTAGCCCA  -0.273
105. AACGAGGT  -0.293
106. GTCCCTCA  -0.295
107. CAGGTCGC  -0.295
108. AGTCGCTG  -0.325
109. CCAGGTGA  -0.352
